Results reported in PubChem BioAssay AID995 (National Center for Advancing Translational Sciences (NCATS), 2007).
Hit rate of the full screen: of about 72,000 compounds, about 710 (0.99%) were called active. Inconclusive means that the source gave no clear call. Such entries were picked first, then a sample of the others. Calls follow the shape of the dose curve; as a rule, active = well fitted inhibition curve with a large enough effect; inconclusive = small, poorly fitted or top-dose-only effect; inactive = no such curve, though single readings can be large or run the other way. A potency beside an inconclusive call is a rough fit, not a confirmed value.

assay: qHTS Assay for Inhibitors of the ERK Signaling Pathway using a Homogeneous Screening Assay; conditions: HEK293-V1b, vasopressin-stimulated pERK AlphaScreen; activity, negative = inhibition: at 57.5 µM (top of the series) unless noted; also: nearly all actives have a fitted effect of over 55% in size
In short: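 Overnight-seeded V1b-HEK293 cells in 1% FBS got compound, then vasopressin (25 nM final, 5 min, 37C), then lysis buffer. AlphaScreen detection of phospho-ERK; activity normalized to basal and full-stimulation controls.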
% is scaled to controls: 0 for no effect and ±100 for the full control effect; potency is read from the fitted curve at half-maximal effect; tags tell the direction and shape of the fitted curve.

Potency, inactive:
C[C@@H]1CC2(OC[C@]3(C)O[C@H]23)O[C@H]2C[C@@]3(C)[C@@H]4CC[C@H]5C(C)(C)C(O[C@@H]6OC[C@@H](O)[C@H](O)[C@H]6O)CC[C@@]56C[C@@]46CC[C@]3(C)[C@@H]12 (some centres undefined)
COc1ccc(-c2noc(CCC(=O)Nc3cc(OC)ccc3OC)n2)cc1
O=S(=O)(c1ccccc1)N1CCC2(CCCN(c3cccc(-c4ccccc4)c3)C2)CC1
CCCC[C@@H]1C[C@H]1[C@@H](NP(=O)(c1ccccc1)c1ccccc1)c1ccccc1OC
O=C1CCSc2cccc3cccc(c23)N1

Potency, inconclusive:
COc1ccc(-c2cc(OC)c3c(C)oc(C)c3c(=O)c2)cc1OC 20 µM [inhibitor, partial curve]
CCCCn1c(N2CCC(Cc3ccccc3)CC2)nc2c1c(=O)[nH]c(=O)n2C 39.8 µM [inhibitor, single point]
CCOC(=O)C1CCCN(C(=O)CN2CCN(Cc3ccc(Cl)cc3)C2=O)C1 (centres undefined) 20 µM [inhibitor, partial curve]
COc1ccc(CNc2ncncc2-c2ccc3c(c2)OCO3)c(OC)c1 39.8 µM [inhibitor, partial curve, poor fit]
CCOC(=O)c1ccc(NC(=O)CN2CCc3ccccc3C2)cc1 39.8 µM [inhibitor, single point]
CC(=O)OC1CCC2C3CCc4cc(O)ccc4C3CCC12C (centres undefined) 3.16 µM [inhibitor, single point]
CC(=O)c1c(N2CCN(Cc3ccccc3)CC2)[nH]c(-c2ccccc2)nc1=S 31.6 µM [inhibitor, partial curve]
Nc1nc2n(c1C(=O)c1ccccc1)CCC2 15.8 µM [inhibitor, partial curve]
CN(C)S(=O)(=O)N1CCN(CC(O)COc2ccc3cc(Br)ccc3c2)CC1 (centres undefined) 31.6 µM [inhibitor, single point]
COc1ccc(-c2ccc(SCC(=O)NCc3ccco3)nn2)cc1OC 1.26 µM [inhibitor, full curve, poor fit]

Potency, active:
C=CCNc1nc(NCc2ccco2)nc(OCC)n1 25.1 µM

activity, negative = inhibition, inactive:
C[N+](C)(C)CC(=O)N/N=C\c1c(O)ccc2ccccc12 12.3% [at 11.5 µM]

activity, negative = inhibition, inconclusive:
COCc1nc(-c2cc(OC)c(OC)c(OC)c2)no1 -34.1% [inhibitor]
CCCOc1ccc(C(=O)CCN2CCCCC2)cc1 -36.2% [inhibitor]
